According to US20070249022A1 (ACCELERON PHARMA, published 2007):

Molecular target: T1, GDF-11 (UniProt O95390 299-407)
T1 sequence (looked up): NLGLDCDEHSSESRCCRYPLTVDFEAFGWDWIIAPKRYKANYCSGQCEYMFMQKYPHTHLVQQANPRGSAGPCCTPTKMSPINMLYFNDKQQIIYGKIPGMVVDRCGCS
Test: cell-based or functional assay

B1: ActRIIa-hFc (Fc fusion)
chain: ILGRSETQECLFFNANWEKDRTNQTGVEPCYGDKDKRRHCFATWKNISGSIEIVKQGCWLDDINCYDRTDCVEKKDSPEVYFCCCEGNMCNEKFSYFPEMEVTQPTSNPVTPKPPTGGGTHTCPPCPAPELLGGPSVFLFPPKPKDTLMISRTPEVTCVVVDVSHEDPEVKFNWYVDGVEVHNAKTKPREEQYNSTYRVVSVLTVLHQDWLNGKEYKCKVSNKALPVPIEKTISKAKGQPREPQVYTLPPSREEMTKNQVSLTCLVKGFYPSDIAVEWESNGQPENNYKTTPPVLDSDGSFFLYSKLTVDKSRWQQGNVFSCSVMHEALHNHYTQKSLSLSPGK
B1 was tested. Which “IC50 of inhibition of GDF-11 signaling, A-204 Reporter Gene Assay (pGL3(CAGA)12 luciferase)” value did it give?
Its value is ~200 pM.
